The source gives no read counts; variants with many changes may rest on few reads.
B1: LINE1-mini (parent)
chain: GGCAGAGCUCAACACAGCGUGGCAAAGUGGCUGUGGCUAGACUGCC

Variants of: B1
Test: self-cleavage, relative activity (ratio to wild type); higher = more cleavage; in vitro, sequencing; the parent is a self-cleaving ribozyme
Variant A16U C23U U32A has a self-cleavage of 0.15.
With G17A A24C G36C C37A the self-cleavage was 0.02.
Work on G17A G33C U34G C42G yielded a self-cleavage of 0.02.
In the case of A16U G19C U28C G36U C42A, the self-cleavage is reported as 0.09.
For G17A G21C A24U C31U, the self-cleavage was 0.26.
With G17A A25U C37A the self-cleavage was 0.11.
G17A C18U U38C G40A G44A showed a self-cleavage of 0.03.
G17A G22A C23U showed a self-cleavage of 0.41.
Variant A16U G17U G21U U34G has a self-cleavage of 0.03.
Variant A16U G19C U43C has a self-cleavage of 0.06.
G17A U20G C23G gave a self-cleavage of 0.01.
Variant G17A G29U A41G has a self-cleavage of 0.06.
A16U A24G G44C gave a self-cleavage of 0.05.
Variant A16U U32G C42U G44U has a self-cleavage of 0.05.
Work on G17A G21A U38C C45U yielded a self-cleavage of 0.
For A16U G17C G44C, the self-cleavage was 0.01.
A16U U34G G36C G44C showed a self-cleavage of 0.
With G17A G22U A26G the self-cleavage was 0.04.
G17A C18U C37A C42A showed a self-cleavage of 0.06.
A16G G27U G44C showed a self-cleavage of 0.19.
In the case of A16U A24U C31U G36C, the self-cleavage is reported as 0.
Variant G17A C18G C31U has a self-cleavage of 0.13.
In the case of A16U G40A U43A C45A, the self-cleavage is reported as 0.01.
Work on G17A U20G C46U yielded a self-cleavage of 0.04.
Variant A16U U28G A39C G44C has a self-cleavage of 0.03.
For G17A C23U G33A A41G, the self-cleavage was 0.12.
With A16U G22A U43G the self-cleavage was 0.
For A16U G17A G19A G36A, the self-cleavage was 0.18.
In the case of G17A G22U G27C, the self-cleavage is reported as 1.17.
A16U G17C G21A G29C gave a self-cleavage of 0.17.
Work on G17A C23G G36A U38C C42G C45U yielded a self-cleavage of 0.14.
A16U C23A A39C showed a self-cleavage of 0.03.
Work on A16U A25G G27C yielded a self-cleavage of 0.08.
A16U U20C U34G A41U U43C showed a self-cleavage of 0.09.
A16U G19U C23U A41U showed a self-cleavage of 0.13.
Variant G17A A24G G36C has a self-cleavage of 0.05.
In the case of A16G U43C G44U, the self-cleavage is reported as 0.02.
In the case of A16U A39C C46U, the self-cleavage is reported as 0.07.
Work on A16U A39C C46A yielded a self-cleavage of 0.14.
In the case of G17A G33A A41C, the self-cleavage is reported as 0.03.
Work on A16U U28C C31U yielded a self-cleavage of 0.03.
In the case of G17A C37U U43C G44U, the self-cleavage is reported as 0.
Work on A16G U34A U43A yielded a self-cleavage of 0.1.
In the case of A16U G29U C31U C42U, the self-cleavage is reported as 0.05.
Variant G17A A24C U32G has a self-cleavage of 0.02.
A16U C31G C37U showed a self-cleavage of 0.01.
G17A G29U U34G showed a self-cleavage of 0.03.
Work on A16U G27C C37U U43A yielded a self-cleavage of 0.45.
G17A A26C U34A G35U U43A C46A gave a self-cleavage of 0.
A16U G33U C37U showed a self-cleavage of 0.03.
In the case of A16U C37A C45U, the self-cleavage is reported as 0.11.
With A16U U20A C31A the self-cleavage was 0.05.
For A16U C23A G36U, the self-cleavage was 0.04.
For G17A G22U G33C A39C, the self-cleavage was 0.01.
In the case of A16U C31G U34A C37A, the self-cleavage is reported as 0.07.
Variant G17A G22C U28G G30A C31U C46U has a self-cleavage of 0.09.
Variant A16U A25C G30A A39G has a self-cleavage of 0.01.
For G17A G27C C42U C46U, the self-cleavage was 0.04.
With G17A A24G G33C the self-cleavage was 0.02.
Variant G17A A25G U28A has a self-cleavage of 0.1.
G17A C23U G36C C45G showed a self-cleavage of 0.01.
G17A A25C G30C A39G showed a self-cleavage of 0.01.
With A16G G27C G33U the self-cleavage was 0.01.
Work on A16U U20A A25U C42A yielded a self-cleavage of 0.13.
In the case of A16U G29C G30A, the self-cleavage is reported as 0.1.
In the case of A16U G17U C18A C31G, the self-cleavage is reported as 0.02.
Variant G17A G19A C42A has a self-cleavage of 0.03.
For A16U G29U C31A, the self-cleavage was 0.05.
Work on A16G U20G G21U yielded a self-cleavage of 0.04.
Variant A16U G33U G40A has a self-cleavage of 0.05.
Work on G17A G29C G30U C37U C42U C45A yielded a self-cleavage of 0.
A16U C23G A24U G35U A41C showed a self-cleavage of 0.01.
A16G U20A C31A showed a self-cleavage of 0.01.
In the case of A16U G19C A25U C37A, the self-cleavage is reported as 0.05.
Variant A16G U20C G21A G44A has a self-cleavage of 0.05.
A16U C18A G33C showed a self-cleavage of 0.02.
Work on G17A A26G G30C yielded a self-cleavage of 0.02.
A16U G30C G33C C45U gave a self-cleavage of 0.03.
Variant A16U A26C G33A C37U has a self-cleavage of 0.06.
G17A C23A C31U G36C gave a self-cleavage of 0.04.
Variant G17A G33U U43G C45A has a self-cleavage of 0.01.
For A16U G19A G35C, the self-cleavage was 0.05.
Variant G17A U20A G36A has a self-cleavage of 0.08.
In the case of A16U A26C G27C C46U, the self-cleavage is reported as 0.04.
Variant A16U C23A U28C U32C U38A G44A has a self-cleavage of 0.04.
For A16U A24C C37A, the self-cleavage was 0.08.
With G17A C31G U43C the self-cleavage was 0.02.
In the case of A16U G21C A25G, the self-cleavage is reported as 0.15.
Variant A16U G29U G35C U38G has a self-cleavage of 0.02.
For A16U G19C A25G G33C A41C C45A, the self-cleavage was 0.01.
G17A C18A U20A U28C showed a self-cleavage of 0.02.
For G17A C37U G40A, the self-cleavage was 0.04.
Work on G17A C23A G27C yielded a self-cleavage of 0.54.
G17A C18G G21A G30C C31U showed a self-cleavage of 0.8.
In the case of A16U G17A G22U G40A, the self-cleavage is reported as 0.02.
For G17A G21U C42A, the self-cleavage was 0.03.
For G17A C37G C42U, the self-cleavage was 0.01.
In the case of G17A C31G C46A, the self-cleavage is reported as 0.02.
Work on A16U G30A C31A yielded a self-cleavage of 0.01.
In the case of A16U A26G G33A, the self-cleavage is reported as 0.04.
For A16G U20G G21U A39U U43A, the self-cleavage was 0.
For A16U A24U U38C, the self-cleavage was 0.04.
Work on G17A G19C U20A C23U C37G C46A yielded a self-cleavage of 0.01.
For A16U G19C G44U C46A, the self-cleavage was 0.08.
With G17A A24U G35U the self-cleavage was 0.05.
For G17A G29C C42U, the self-cleavage was 0.01.
Work on G17A C37U U38A C42U U43G yielded a self-cleavage of 0.12.
A16G G27A A41G gave a self-cleavage of 0.12.
Work on G17A G29U G36A U43G G44U C45A yielded a self-cleavage of 0.02.
Variant A16G U20G C23A U32G C42U has a self-cleavage of 0.06.
In the case of G17A G21A G22A C23U A41C, the self-cleavage is reported as 0.
Variant G17A G29C G30U has a self-cleavage of 0.05.
In the case of G17A G36A C42G, the self-cleavage is reported as 0.
G17A G22A G29A C37U A41G gave a self-cleavage of 0.01.
Work on A16U G17U C23U A24C G29U yielded a self-cleavage of 0.01.
Work on G17A G30U G36U C42A yielded a self-cleavage of 0.05.
For A16U U20G C37U A39C, the self-cleavage was 0.01.
A16U C31U C46A showed a self-cleavage of 0.08.
Variant A16U G29U G30U G36C has a self-cleavage of 0.02.
For G17A U20A A25G U28G C31A, the self-cleavage was 0.01.
G17A A26U G40U C42A gave a self-cleavage of 0.11.
Variant A16U G22A C23A U38A has a self-cleavage of 0.41.
Variant A16G G40A C42A has a self-cleavage of 0.
Variant G17A C18A C23U has a self-cleavage of 0.22.
Work on A16U A25U G30A A39U G40C C42A yielded a self-cleavage of 0.12.
Variant G17A G21A G27A G29C U43C has a self-cleavage of 0.08.
A16U G29U G44A showed a self-cleavage of 0.26.
A16U C18U G36U gave a self-cleavage of 0.13.
In the case of A16G G33A U43A C46U, the self-cleavage is reported as 0.01.
With G17A A24G G35C G44U the self-cleavage was 0.08.
With G17A C18U A41G the self-cleavage was 0.04.
G17A A26U G35C U38C gave a self-cleavage of 0.01.
In the case of A16U G21U U34G U38C A39U, the self-cleavage is reported as 0.01.
For A16U G17U A39G, the self-cleavage was 0.05.
A16U G17U A39C showed a self-cleavage of 0.02.
Variant A16G U34A G36C U38A A41G has a self-cleavage of 0.
Variant G17A G19C C45A has a self-cleavage of 0.24.
With G17A G27A G35U the self-cleavage was 0.09.
Variant A16G U28C C31G G36C C45U C46G has a self-cleavage of 0.05.
Work on G17A G33U U34C G35C C37A yielded a self-cleavage of 0.02.
For G17A C18U U28G G33U G36U, the self-cleavage was 0.02.
Variant G17A G22U C42U has a self-cleavage of 0.09.
With A16U G22A U34C G40C the self-cleavage was 0.01.
In the case of G17A G21U C46G, the self-cleavage is reported as 0.16.
Work on A16U G17A U28A yielded a self-cleavage of 0.04.
A16U G30U G33A gave a self-cleavage of 0.2.
For G17A A25C C45A, the self-cleavage was 0.09.
G17A C31A C42A C46U gave a self-cleavage of 0.01.
With A16U A26G C31G U38C the self-cleavage was 0.03.
A16U A24C G29U C46G gave a self-cleavage of 0.02.
For A16U A24U A25U U28G, the self-cleavage was 0.81.
With A16U A26G G44A the self-cleavage was 0.17.
Variant A16U U20C C46U has a self-cleavage of 0.06.
A16U G22U G40A showed a self-cleavage of 0.96.
For G17A C23A G27A A41C, the self-cleavage was 0.02.
In the case of G17A G33C G35C, the self-cleavage is reported as 0.01.
For G17A A39G A41C, the self-cleavage was 0.
For G17A A26U G33C C45U, the self-cleavage was 0.07.
G17A A26G G30U C37U showed a self-cleavage of 0.1.
Work on A16G U28C G29C G40U G44A yielded a self-cleavage of 0.01.
Work on A16U G19C G30A yielded a self-cleavage of 0.14.
Work on G17A A25U C37A C46A yielded a self-cleavage of 0.02.
Work on G17A G19U U34G U43C yielded a self-cleavage of 0.04.
In the case of G17A C23A C46G, the self-cleavage is reported as 0.02.
G17A G27U G29U U43A showed a self-cleavage of 0.12.
For A16U G21A C23A, the self-cleavage was 0.26.
With A16G U28A G33C G36A C42A the self-cleavage was 0.01.

— the RNAGym collection of RNA variant scans (doi:10.7554/elife.90254)
